{
  "source": "ChEMBL document CHEMBL5308541",
  "about": "“MAIP: An Open-Source Tool to Enrich High-Throughput Screening Output and Identify Novel, Druglike Molecules with Antimalarial Activity” (ACS Med Chem Lett, 2023)",
  "note": "Screen size: about 150,000 compounds; about 540 (0.36%) showed an effect of 50% or more. The list shows a part of the results.",
  "data": [
    {"tested_on": "Plasmodium falciparum", "assay": "Primary screen in NF54 nanoGlo assay, in single point, at 2uM, 72h; a lower Z score goes with more inhibition", "type": "functional, Erythrocyte", "settings": "timepoint 72 hour", "units": {"% Inhibition": "%"}, "values": [
      {"smiles": "COc1ccc2[nH]nc(CN3CCC(C4CCN(C)CC4)CC3)c2c1", "% Inhibition": 6, "Z score": -0.99},
      {"smiles": "C[C@H](Nc1ncnc2c(F)cccc12)c1cccc(-n2ccnc2)c1", "% Inhibition": 3, "Z score": -0.63},
      {"smiles": "c1cc2sccc2c(N2CCN(Cc3ccc4cn[nH]c4c3)CC2)n1", "% Inhibition": -10, "Z score": 1.49},
      {"smiles": "CCN1CCN(Cc2cc(C)cc(CNCc3csc(-c4cnccn4)n3)c2C)CC1", "% Inhibition": 4, "Z score": -0.74},
      {"smiles": "Nc1ncc(-c2ccc(C(=O)NC[C@H]3CC[C@H](CO)CC3)cc2)cc1Cl", "% Inhibition": -6, "Z score": 1.02},
      {"smiles": "CN1CCC2(CC1)CN(c1nccc(N3CCC[C@H](O)C3)n1)CCN2C", "% Inhibition": 14, "Z score": -2.72},
      {"smiles": "Cc1nn(C)cc1-c1ccnc(NC2CCN(Cc3cccnc3)CC2)n1", "% Inhibition": -3, "Z score": 0.56},
      {"smiles": "CC(C)c1nc(NCc2ccnc(N3CCOCC3)c2)c2cc[nH]c2n1", "% Inhibition": 6, "Z score": -1.09},
      {"smiles": "CC1(C)CC(NCCC2(O)CCCC2)CC(C)(C)N1", "% Inhibition": -11, "Z score": 1.85},
      {"smiles": "CC1CC(C)CC(CCN2CCN(CCN3CCCOCC3)CC2)C1", "note": "(centres undefined)", "% Inhibition": 7, "Z score": -1.05},
      {"smiles": "COCCN1CCC(Nc2cc(N3CCC(C)(O)CC3)ncn2)CC1", "% Inhibition": 3, "Z score": -0.58},
      {"smiles": "OCC1CC(CN2CCOCC2)CN(Cc2ccc(-c3ccccc3)cc2)C1", "note": "(centres undefined)", "% Inhibition": -2, "Z score": 0.32},
      {"smiles": "CCN(Cc1ccc2[nH]ccc2c1)Cc1ccnn1CC", "% Inhibition": 7, "Z score": -1.3},
      {"smiles": "O=C(NC1CCN(CCOc2ccc(Cl)cc2)CC1)c1c[nH]c2ccncc2c1=O", "% Inhibition": 94, "Z score": -14.22},
      {"smiles": "COC[C@H](C)Nc1ccccc1NC(=O)c1ncn2ccc(C)cc12", "% Inhibition": -1, "Z score": 0.21},
      {"smiles": "O=C1C[C@H](CNc2ncnc3[nH]ccc23)CN1C1CCCC1", "% Inhibition": 5, "Z score": -0.82},
      {"smiles": "CN(Cc1ccon1)Cc1ccc(C#CC(C)(C)O)s1", "% Inhibition": -3, "Z score": 0.49},
      {"smiles": "C[C@H](NC1CCC2(CCNCC2)CC1)c1nc(-c2ccccn2)no1", "% Inhibition": -9, "Z score": 1.56},
      {"smiles": "c1ccc(-c2nccn2CCCNc2ncnc3cnccc23)cc1", "% Inhibition": -6, "Z score": 0.9},
      {"smiles": "COCCN1CC[C@H](CNc2nc(C)nc3c2CCNCC3)C1", "% Inhibition": -3, "Z score": 0.48},
      {"smiles": "NS(=O)(=O)c1ccc(C(=O)N2CCN(c3cc(Nc4ccccn4)ncn3)CC2)cc1", "% Inhibition": -9, "Z score": 1.61},
      {"smiles": "Cc1cc2nc(C(C)C)cc(NC3COCC3N3CCOCC3)n2n1", "note": "(centres undefined)", "% Inhibition": -4, "Z score": 0.83},
      {"smiles": "COc1ccccc1CN(Cc1ccc2[nH]ccc2c1)C1CC1", "% Inhibition": -1, "Z score": 0.26},
      {"smiles": "Cn1nc(CN2CCCCNC(=O)[C@@H]3C[C@@H](CN3)N(C(=O)c3ccccc3)CCC2)c2c(Cl)cccc21", "% Inhibition": -10, "Z score": 2.1},
      {"smiles": "O=C(NCCc1ccns1)c1ccc(OC(F)F)cn1", "% Inhibition": -3, "Z score": 0.61},
      {"smiles": "COc1ccc(N2CCC(N3CCC(CCC(=O)NCCN(C)C)CC3)CC2)cc1", "% Inhibition": -3, "Z score": 0.55},
      {"smiles": "O=C(N1CCN(c2nccc(-c3ccc(-n4ccnc4)cc3)n2)CC1)C(F)(F)C(F)(F)C(F)(F)F", "% Inhibition": 11, "Z score": -1.94},
      {"smiles": "FC(F)(F)CCCN(Cc1cccnc1)CC1CCN(C2CCCC2)CC1", "% Inhibition": -8, "Z score": 1.32},
      {"smiles": "Cc1ccc(-c2cccc(C(=O)N3CCN(CCN4CCCC4)CC3)c2)o1", "% Inhibition": 8, "Z score": -1.62},
      {"smiles": "CCOC(=O)C(=O)N1CCN(C(=O)c2ccc3ncnn3c2)CC1", "% Inhibition": 0, "Z score": -0.01},
      {"smiles": "OCCN1CCN(C2CCN(c3ccccc3)CC2)C[C@@H](O)C1", "% Inhibition": -4, "Z score": 0.68},
      {"smiles": "CC(=O)N1CCN(Cc2cccc(-c3cnn4cc(Cl)ccc34)c2)CC1", "% Inhibition": -4, "Z score": 0.58},
      {"smiles": "Cc1nonc1CNS(=O)(=O)c1ccc(-c2cc(C(F)(F)F)[nH]n2)o1", "% Inhibition": -4, "Z score": 0.61},
      {"smiles": "O=c1cc(N2CCN(C3CCN(Cc4ccco4)CC3)CC2)c(-c2ccccc2)n[nH]1", "% Inhibition": 2, "Z score": -0.48},
      {"smiles": "CN(C)C(=O)c1ccc(N2CCC(NCCN3CCC[C@H](c4ccccc4)C3)CC2)cc1", "% Inhibition": -4, "Z score": 0.7},
      {"smiles": "CC(C)N1CCN(c2ccc(-c3ccc4[nH]nc(N)c4c3)cc2)CC1", "% Inhibition": -9, "Z score": 1.66},
      {"smiles": "Fc1cc(-c2noc([C@@H](c3ccccc3)C3CC3)n2)ccc1OC1CCNCC1", "% Inhibition": -5, "Z score": 1.02},
      {"smiles": "Cn1ccn2ncc(C(=O)NCC3CCN(C(=O)c4cc5ccccc5[nH]4)CC3)c12", "% Inhibition": -9, "Z score": 1.37},
      {"smiles": "CNc1cc([C@H]2C[C@@H](NC3CC(C)(C)NC(C)(C)C3)C2)ncn1", "% Inhibition": 11, "Z score": -1.95},
      {"smiles": "CC(C)Oc1cccc(-c2cc(C3CCNCC3)c(C#N)c(N)n2)c1", "% Inhibition": -7, "Z score": 1.08},
      {"smiles": "CC1CC(CNc2ccnc(NCC3CCOC(C)C3)n2)CCO1", "note": "(centres undefined)", "% Inhibition": 20, "Z score": -3.06},
      {"smiles": "CCCN1CCC(N2CCN(Cc3cn(C)nc3C(F)F)CC2)CC1", "% Inhibition": 0, "Z score": 0.08},
      {"smiles": "Cc1c(C(=O)NC2CCCCC2)nnn1-c1cccc2c1CCN(c1ccc(C#N)cn1)C2", "% Inhibition": 4, "Z score": -0.7},
      {"smiles": "Cc1sc(CNC(=O)c2cccc3ncccc23)nc1-c1ccc(Cl)cc1", "% Inhibition": -5, "Z score": 0.92},
      {"smiles": "Cc1nc2n(n1)CC(NC(=O)N1CCC(Nc3ccc4nccn4n3)C1)CC2", "note": "(centres undefined)", "% Inhibition": -7, "Z score": 1.27},
      {"smiles": "O=C(c1cccc(-c2ccc3c(c2)OC(F)(F)O3)c1)N1CCCNCC1", "% Inhibition": 10, "Z score": -2.07},
      {"smiles": "O=C(Nc1ccc(N2CCC(NCc3cc4ccccc4[nH]3)CC2)cc1)C1CCCC1", "% Inhibition": -5, "Z score": 0.8},
      {"smiles": "C[C@@H](C(=O)OC(C)(C)C)N(C)c1ccn(C)n1", "% Inhibition": -3, "Z score": 0.51},
      {"smiles": "CCc1ncc(-c2c(-c3ccccc3)ncn2CCCCc2ccccn2)cn1", "% Inhibition": -12, "Z score": 2.32},
      {"smiles": "C[C@@H](C(=O)N1CCCN(c2cc(N)ncn2)CC1)N1CCCCCC1", "% Inhibition": 7, "Z score": -1.41},
      {"smiles": "CCC1CN(c2ccc(C#N)c(N3CCN(CC(C)O)C(CC)C3)n2)CCN1CC(C)O", "note": "(centres undefined)", "% Inhibition": -2, "Z score": 0.44},
      {"smiles": "CC(C)Oc1ccc(Cl)cc1CN1CC(O)C(Cc2ccnc3ccccc23)C1", "note": "(centres undefined)", "% Inhibition": 0, "Z score": -0.05},
      {"smiles": "COc1ccc2ncc(Cl)c(N3CCC(NCCO)CC3)c2c1", "% Inhibition": 0, "Z score": 0.08},
      {"smiles": "O=C(c1cc2cc(F)ccc2[nH]1)N1CCN(c2ncnc3sccc23)CC1", "% Inhibition": 0, "Z score": -0.03},
      {"smiles": "COCCO[C@H]1CCN(C(=O)c2ccc3nnn(C)c3c2)C1", "% Inhibition": 0, "Z score": -0.06},
      {"smiles": "CN(C)C1CCN(c2cc(N3CCC(N(C)C)C3)ncn2)C1", "note": "(centres undefined)", "% Inhibition": -2, "Z score": 0.32},
      {"smiles": "Cc1cccc2ncnc(N[C@H]3Cc4cncn4C3)c12", "% Inhibition": -6, "Z score": 1.3},
      {"smiles": "CCCN(CC(F)F)C(=O)c1sccc1S(=O)(=O)C(F)F", "% Inhibition": 6, "Z score": -1.16},
      {"smiles": "Cc1ccccc1[C@H]1CCN(CCNc2nc(N)nc3[nH]cnc23)C1", "% Inhibition": 8, "Z score": -1.22},
      {"smiles": "COc1nsc(C(=O)N(Cc2ccc(F)cc2)C(C)C)c1Br", "% Inhibition": 2, "Z score": -0.35},
      {"smiles": "Cc1cc(NCc2cccc(Cn3cncn3)c2)nc2c(C(C)C)cccc12", "% Inhibition": -4, "Z score": 0.66},
      {"smiles": "O=C(NCc1cc2cc(F)ccc2s1)c1c[nH]c2ccccc2c1=O", "% Inhibition": 1, "Z score": -0.22},
      {"smiles": "COc1cccc(-c2cc(C(=O)N3CCN(CCn4ccnc4)CC3)[nH]n2)c1", "% Inhibition": -2, "Z score": 0.5},
      {"smiles": "COc1ccc(Nc2cc(C)nc(NCCNC(=O)COc3nccc(C)n3)n2)cc1", "% Inhibition": 5, "Z score": -0.96},
      {"smiles": "O=C(NCc1ccc2ncccc2c1)N1CCN(CC2CCOCC2)CC1", "% Inhibition": -14, "Z score": 2.81},
      {"smiles": "CNC(=O)CCc1cccc(NC(=O)NC2(COC)CCCC2)c1", "% Inhibition": 1, "Z score": -0.2},
      {"smiles": "O=C(c1cncc(N[C@H]2CCCN(CC3CCCCC3)C2)n1)N1CCCC1", "% Inhibition": -1, "Z score": 0.19},
      {"smiles": "Fc1ccc(C2(c3nc(-c4ncccn4)no3)CCC2)c(F)c1", "% Inhibition": 8, "Z score": -1.21},
      {"smiles": "C[C@H](NC(=O)CN(C)C1CCNCC1)c1nc(-c2ccncc2)no1", "% Inhibition": -11, "Z score": 2.46},
      {"smiles": "COc1cc(CC(=O)N2CC3(CN(C)C(=O)O3)C2)ccn1", "% Inhibition": -9, "Z score": 1.33},
      {"smiles": "Nc1nnc(CCCNc2nccc(-c3ccncc3)n2)s1", "% Inhibition": -9, "Z score": 1.91},
      {"smiles": "CC(O)C1CCN(c2cc(N3Cc4ccccc4-c4ccccc4C3)ncn2)C1", "note": "(centres undefined)", "% Inhibition": 2, "Z score": -0.28}
    ]}
  ]
}
